{"source": "paper PMC5075699", "test_system": "ATF4", "experiment": "ATF4 western blot, 293T cell lysate controls (ER stress induction)", "key": {"[1]": {"details": "293T cell lysate, cortex ATF4 blot 2"}}}
{"compound": "tunicamycin", "values": [{"measurement": "ATF4:GAPDH signal (normalized ATF4)", "setting": "[1]", "result": "5.17E-01"}, {"measurement": "ATF4 Signal (channel 800)", "setting": "[1]", "result": "1.40E+03"}]}
{"compound": "C/C=C(/C)C(=O)O[C@H]1C(C)=C2[C@H]([C@@H]1OC(=O)CCCCCCC)[C@@](C)(OC(C)=O)C[C@H](OC(=O)CCC)[C@@]1(O)[C@H]2OC(=O)[C@@]1(C)O", "note": "[Thapsigargin, thapsigargin]", "values": [{"measurement": "ATF4 Signal (channel 800)", "setting": "293T cell lysate + Thapsigargin, western blot band signal, Dentate ATF4 Blot 1 (image 0002173_01)", "result": "1.34E+03"}, {"measurement": "ATF4 Signal (channel 800)", "setting": "293T cell lysate + Thapsigargin, western blot band signal, Dentate ATF4 Blot 2 (image 0002174_01)", "result": "9.45E+02"}, {"measurement": "ATF4 Signal (channel 800)", "setting": "293T cell lysate + Thapsigargin, western blot band signal, Dentate ATF4 Blot 3 (image 0002175_01)", "result": "1.24E+03"}, {"measurement": "ATF4:GAPDH signal (normalized ATF4)", "setting": "293T cell lysate + Thapsigargin, western blot, Dentate ATF4 Blot 1 (image 0002173_01)", "result": "1.00E+00"}, {"measurement": "ATF4:GAPDH signal (normalized ATF4)", "setting": "293T cell lysate + Thapsigargin, western blot, Dentate ATF4 Blot 2 (image 0002174_01)", "result": "1.22E+00"}, {"measurement": "ATF4:GAPDH signal (normalized ATF4)", "setting": "293T cell lysate + Thapsigargin, western blot, Dentate ATF4 Blot 3 (image 0002175_01)", "result": "1.26E+00"}, {"measurement": "ATF4:GAPDH signal (normalized ATF4)", "setting": "293T cell lysate, cortex ATF4 blot 1", "result": "3.82E-01"}, {"measurement": "ATF4:GAPDH signal (normalized ATF4)", "setting": "[1]", "result": "5.46E-01"}, {"measurement": "ATF4 Signal (channel 800)", "setting": "[1]", "result": "1.48E+03"}]}
